# Source: the supplement of paper PMC12217912
# The other results are listed elsewhere or left out. The full chains were built here from the parent and the listed change. Values near 0.05 are background.
# B1: TEV protease; numbered along this chain (parent)
# chain: MGESLFKGPRDYNPISSSICHLTNESDGHTTSLYGIGFGPFIITNKHLFRRNNGTLVVQSLHGVFKVKDTTTLQQHLVDGRDMIIIRMPKDFPPFPQKLKFREPQREERICLVTTNFQTKSMSSMVSDTSCTFPSGDGIFWKHWIQTKDGQCGSPLVSTRDGFIVGIHSASNFTNTNNYFTSVPKNFMELLTNQEAQQWVSGWRLNADSVLWGGHKVFMVKPEEPFQPVKEATQL
# Variants of: B1
# Assay: raw area under fraction-flipped curve 0-4 h after induction (AUC4h, not background-subtracted), DNA-recorder readout of cleavage of the substrate (dimensionless); higher = more cleavage of the substrate by the protease variant
# Settings: temperature: 34 °C; time window: 0-4 h after rhamnose induction
# Description: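 In vivo DNA recorder in E. coli TOP10(DE3) ΔrhaA at 34 °C. Each TEVp single-site mutant (parent TEVp 0) is paired with a single-site variant of the 7-mer TEVs (canonical ENLYFQ|S). The substrate sits between flexible linkers in a Bxb1-sfGFP-TEVs-SsrA fusion, so cleavage stabilises Bxb1 and speeds flipping of a recombination array, read by NGS. The value is the raw area under the fraction-flipped curve over 0-4 h after rhamnose induction (AUC4h), with ≥20 reads per time point. It is not background-subtracted; inactive controls average about 0.047.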
# 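Further: Bxb1 expression induced with 0.2% (w/v) L-rhamnose at OD600 near 0.5, cultures sampled hourly, flipped fraction per protease–substrate barcode pair counted by paired-end Illumina sequencing.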
Variant,area with substrate ENAYFQS,area with substrate ENDYFQS,area with substrate ENGYFQS,area with substrate ENHYFQS,area with substrate ENNYFQS,area with substrate ENPYFQS,area with substrate ENQYFQS,area with substrate ENSYFQS,area with substrate ENVYFQS,area with substrate ENWYFQS
MGESLFKGPRDYNPISSSICHLTNESDGHTTSLYGIGFGPFIITNKHLFRRNNGTLVVQSLHGVFKVKDTTTLQQHLVDGRDMIIIRMPKDFPPFPQKLKFREPQREERICLVTTNFQTKSMSGMVSDTSCTFPSGDGIFWKHWIQTKDGQCGSPLVSTRDGFIVGIHSASNFTNTNNYFTSVPKNFMELLTNQEAQQWVSGWRLNADSVLWGGHKVFMVKPEEPFQPVKEATQL [S124G],0.0642,0.0691,0.0594,0.0992,0.0591,0.0518,0.0653,0.0521,0.0605,0.0393
MGESLFKGPRDYNPISSSICHLTNESDGHTTSLYGIGFGPFIITNKHLFRRNNGTLVVQSLHGVFKVKDTTTLQQHLVDGRDMIIIRMPKDFPPFPQKLKFREPQREERICLVTTNFQTKSMSYMVSDTSCTFPSGDGIFWKHWIQTKDGQCGSPLVSTRDGFIVGIHSASNFTNTNNYFTSVPKNFMELLTNQEAQQWVSGWRLNADSVLWGGHKVFMVKPEEPFQPVKEATQL [S124Y],0.0738,–,–,–,–,–,0.0755,0.0454,–,–
MGESLFKGPRDYNPISSSICHLTNESDGHTTSLYGIGFGPFIITNKHLFRRNNGTLVVQSLHGVFKVKDTTTLQQHLVDGRDMIIIRMPKDFPPFPQKLKFREPQREERICLVTTNFQTKSMSSMVSDDSCTFPSGDGIFWKHWIQTKDGQCGSPLVSTRDGFIVGIHSASNFTNTNNYFTSVPKNFMELLTNQEAQQWVSGWRLNADSVLWGGHKVFMVKPEEPFQPVKEATQL [T129D],0.0614,0.076,0.0637,0.0694,–,–,0.0586,0.0528,–,–
MGESLFKGPRDYNPISSSICHLTNESDGHTTSLYGIGFGPFIITNKHLFRRNNGTLVVQSLHGVFKVKDTTTLQQHLVDGRDMIIIRMPKDFPPFPQKLKFREPQREERICLVTTNFQTKSMSSMVSDKSCTFPSGDGIFWKHWIQTKDGQCGSPLVSTRDGFIVGIHSASNFTNTNNYFTSVPKNFMELLTNQEAQQWVSGWRLNADSVLWGGHKVFMVKPEEPFQPVKEATQL [T129K],0.0687,–,0.0653,–,0.0728,0.0466,0.0608,0.064,0.064,–
MGESLFKGPRDYNPISSSICHLTNESDGHTTSLYGIGFGPFIITNKHLFRRNNGTLVVQSLHGVFKVKDTTTLQQHLVDGRDMIIIRMPKDFPPFPQKLKFREPQREERICLVTTNFQTKSMSSMVSDTSHTFPSGDGIFWKHWIQTKDGQCGSPLVSTRDGFIVGIHSASNFTNTNNYFTSVPKNFMELLTNQEAQQWVSGWRLNADSVLWGGHKVFMVKPEEPFQPVKEATQL [C131H],0.0572,0.0587,–,–,–,–,–,–,–,–
MGESLFKGPRDYNPISSSICHLTNESDGHTTSLYGIGFGPFIITNKHLFRRNNGTLVVQSLHGVFKVKDTTTLQQHLVDGRDMIIIRMPKDFPPFPQKLKFREPQREERICLVTTNFQTKSMSSMVSDTSKTFPSGDGIFWKHWIQTKDGQCGSPLVSTRDGFIVGIHSASNFTNTNNYFTSVPKNFMELLTNQEAQQWVSGWRLNADSVLWGGHKVFMVKPEEPFQPVKEATQL [C131K],0.0687,–,–,–,0.0606,0.0527,0.0107,0.0656,–,–
MGESLFKGPRDYNPISSSICHLTNESDGHTTSLYGIGFGPFIITNKHLFRRNNGTLVVQSLHGVFKVKDTTTLQQHLVDGRDMIIIRMPKDFPPFPQKLKFREPQREERICLVTTNFQTKSMSSMVSDTSWTFPSGDGIFWKHWIQTKDGQCGSPLVSTRDGFIVGIHSASNFTNTNNYFTSVPKNFMELLTNQEAQQWVSGWRLNADSVLWGGHKVFMVKPEEPFQPVKEATQL [C131W],0.0704,0.0485,–,–,–,–,–,–,–,–
MGESLFKGPRDYNPISSSICHLTNESDGHTTSLYGIGFGPFIITNKHLFRRNNGTLVVQSLHGVFKVKDTTTLQQHLVDGRDMIIIRMPKDFPPFPQKLKFREPQREERICLVTTNFQTKSMSSMVSDTSCNFPSGDGIFWKHWIQTKDGQCGSPLVSTRDGFIVGIHSASNFTNTNNYFTSVPKNFMELLTNQEAQQWVSGWRLNADSVLWGGHKVFMVKPEEPFQPVKEATQL [T132N],0.0675,–,0.0716,–,0.0587,–,0.0605,0.0682,0.0405,–
MGESLFKGPRDYNPISSSICHLTNESDGHTTSLYGIGFGPFIITNKHLFRRNNGTLVVQSLHGVFKVKDTTTLQQHLVDGRDMIIIRMPKDFPPFPQKLKFREPQREERICLVTTNFQTKSMSSMVSDTSCTFRSGDGIFWKHWIQTKDGQCGSPLVSTRDGFIVGIHSASNFTNTNNYFTSVPKNFMELLTNQEAQQWVSGWRLNADSVLWGGHKVFMVKPEEPFQPVKEATQL [P134R],0.0536,0.0548,0.0678,0.0633,0.0659,0.056,0.0589,0.0531,0.0645,–
MGESLFKGPRDYNPISSSICHLTNESDGHTTSLYGIGFGPFIITNKHLFRRNNGTLVVQSLHGVFKVKDTTTLQQHLVDGRDMIIIRMPKDFPPFPQKLKFREPQREERICLVTTNFQTKSMSSMVSDTSCTFPSGQGIFWKHWIQTKDGQCGSPLVSTRDGFIVGIHSASNFTNTNNYFTSVPKNFMELLTNQEAQQWVSGWRLNADSVLWGGHKVFMVKPEEPFQPVKEATQL [D137Q],0.0453,–,0.0444,0.0597,–,0.053,0.061,0.0963,0.0978,–

# Same assay, conditions: temperature: 34 °C; time window: 0-4 h after rhamnose induction
Variant,area with substrate ENCYFQS,area with substrate ENKYFQS,area with substrate ENRYFQS,area with substrate ENEYFQS,area with substrate ENMYFQS,area with substrate ENTYFQS,area with substrate ENFYFQS,area with substrate ENIYFQS,area with substrate ENYYFQS
MGESLFKGPRDYNPISSSICHLTNESDGHTTSLYGIGFGPFIITNKHLFRRNNGTLVVQSLHGVFKVKDTTTLQQHLVDGRDMIIIRMPKDFPPFPQKLKFREPQREERICLVTTNFQTKSMSYMVSDTSCTFPSGDGIFWKHWIQTKDGQCGSPLVSTRDGFIVGIHSASNFTNTNNYFTSVPKNFMELLTNQEAQQWVSGWRLNADSVLWGGHKVFMVKPEEPFQPVKEATQL [S124Y],0.0665,0.0731,0.0947,–,–,–,–,–,–
MGESLFKGPRDYNPISSSICHLTNESDGHTTSLYGIGFGPFIITNKHLFRRNNGTLVVQSLHGVFKVKDTTTLQQHLVDGRDMIIIRMPKDFPPFPQKLKFREPQREERICLVTTNFQTKSMSSMVSDDSCTFPSGDGIFWKHWIQTKDGQCGSPLVSTRDGFIVGIHSASNFTNTNNYFTSVPKNFMELLTNQEAQQWVSGWRLNADSVLWGGHKVFMVKPEEPFQPVKEATQL [T129D],–,0.0664,0.0439,0.0561,0.0815,0.0533,–,–,–
MGESLFKGPRDYNPISSSICHLTNESDGHTTSLYGIGFGPFIITNKHLFRRNNGTLVVQSLHGVFKVKDTTTLQQHLVDGRDMIIIRMPKDFPPFPQKLKFREPQREERICLVTTNFQTKSMSSMVSDKSCTFPSGDGIFWKHWIQTKDGQCGSPLVSTRDGFIVGIHSASNFTNTNNYFTSVPKNFMELLTNQEAQQWVSGWRLNADSVLWGGHKVFMVKPEEPFQPVKEATQL [T129K],0.0618,0.0543,–,0.0582,–,0.0539,–,–,–
MGESLFKGPRDYNPISSSICHLTNESDGHTTSLYGIGFGPFIITNKHLFRRNNGTLVVQSLHGVFKVKDTTTLQQHLVDGRDMIIIRMPKDFPPFPQKLKFREPQREERICLVTTNFQTKSMSSMVSDTSHTFPSGDGIFWKHWIQTKDGQCGSPLVSTRDGFIVGIHSASNFTNTNNYFTSVPKNFMELLTNQEAQQWVSGWRLNADSVLWGGHKVFMVKPEEPFQPVKEATQL [C131H],0.0851,–,–,–,–,–,–,–,–
MGESLFKGPRDYNPISSSICHLTNESDGHTTSLYGIGFGPFIITNKHLFRRNNGTLVVQSLHGVFKVKDTTTLQQHLVDGRDMIIIRMPKDFPPFPQKLKFREPQREERICLVTTNFQTKSMSSMVSDTSKTFPSGDGIFWKHWIQTKDGQCGSPLVSTRDGFIVGIHSASNFTNTNNYFTSVPKNFMELLTNQEAQQWVSGWRLNADSVLWGGHKVFMVKPEEPFQPVKEATQL [C131K],–,0.108,0.0421,–,–,0.0534,–,–,–
MGESLFKGPRDYNPISSSICHLTNESDGHTTSLYGIGFGPFIITNKHLFRRNNGTLVVQSLHGVFKVKDTTTLQQHLVDGRDMIIIRMPKDFPPFPQKLKFREPQREERICLVTTNFQTKSMSSMVSDTSWTFPSGDGIFWKHWIQTKDGQCGSPLVSTRDGFIVGIHSASNFTNTNNYFTSVPKNFMELLTNQEAQQWVSGWRLNADSVLWGGHKVFMVKPEEPFQPVKEATQL [C131W],0.0769,0.0677,–,–,0.0993,0.0629,–,–,–
MGESLFKGPRDYNPISSSICHLTNESDGHTTSLYGIGFGPFIITNKHLFRRNNGTLVVQSLHGVFKVKDTTTLQQHLVDGRDMIIIRMPKDFPPFPQKLKFREPQREERICLVTTNFQTKSMSSMVSDTSCNFPSGDGIFWKHWIQTKDGQCGSPLVSTRDGFIVGIHSASNFTNTNNYFTSVPKNFMELLTNQEAQQWVSGWRLNADSVLWGGHKVFMVKPEEPFQPVKEATQL [T132N],–,–,–,0.0637,0.0515,0.0786,0.0758,0.0648,0.0561
MGESLFKGPRDYNPISSSICHLTNESDGHTTSLYGIGFGPFIITNKHLFRRNNGTLVVQSLHGVFKVKDTTTLQQHLVDGRDMIIIRMPKDFPPFPQKLKFREPQREERICLVTTNFQTKSMSSMVSDTSCTFRSGDGIFWKHWIQTKDGQCGSPLVSTRDGFIVGIHSASNFTNTNNYFTSVPKNFMELLTNQEAQQWVSGWRLNADSVLWGGHKVFMVKPEEPFQPVKEATQL [P134R],–,0.0518,–,0.0529,0.0556,–,0.0752,–,–
MGESLFKGPRDYNPISSSICHLTNESDGHTTSLYGIGFGPFIITNKHLFRRNNGTLVVQSLHGVFKVKDTTTLQQHLVDGRDMIIIRMPKDFPPFPQKLKFREPQREERICLVTTNFQTKSMSSMVSDTSCTFPSGQGIFWKHWIQTKDGQCGSPLVSTRDGFIVGIHSASNFTNTNNYFTSVPKNFMELLTNQEAQQWVSGWRLNADSVLWGGHKVFMVKPEEPFQPVKEATQL [D137Q],0.075,–,–,0.0529,0.0751,–,–,–,0.0658
